Source: the RNAGym collection of RNA variant scans (doi:10.1093/nar/gkz1192)
The source gives no read counts; variants with many changes may rest on few reads.

B1: CPEB3 Ribozyme (parent)
chain: UAACAGGGGGCCACAGCAGAAGCGUUCACGUCGCAGCCCCUGUCAGAUUCUGGUGAAUCUGCGAAUUCUGCUGUAUAUCUC

Variants of: B1
Assay: self-cleavage, relative activity (ratio to wild type); higher = more cleavage; in vitro, sequencing
Procedure, shortened: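 After error-prone PCR and barcoding, CPEB3 ribozyme mutant libraries were transcribed with T7 RNA polymerase at 37°C for 5 hours, then given 15 min with DNase I before an EDTA stop, and they cleaved during both steps. Reverse transcription with template switching preceded Illumina sequencing. Relative activity divides a variant's cleaved/total read fraction by the unmutated ribozyme's. At least 5 reads were required per variant, and three batches were averaged.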
For G8A A21G U25A A28G U31C U72A, the self-cleavage was 0.04. G8A A21G U26A U48C showed a self-cleavage of 0.06. G8A A21G U31C A45G U78C gave a self-cleavage of 0.05. Variant G8A A21G U31C U60A U66A has a self-cleavage of 0.05. G8A A21G U49C U51C U54G A77G gave a self-cleavage of 0.03. Variant G8A A21G U51C A57G A64U C81U has a self-cleavage of 0.25. For G8A A21G U60A U80G, the self-cleavage was 0.05. G8A A21G U67C U78C C79U gave a self-cleavage of 0.06. G8A A21U U26C U80A showed a self-cleavage of 0.04. G8A A28G A35G A45U U54C A65G U69C showed a self-cleavage of 0.04. In the case of G8A A28G A47U U69A, the self-cleavage is reported as 0.11. For G8A A28G C29U U49C U51A U54C U67A, the self-cleavage was 0.04. G8A A28G C38G showed a self-cleavage of 0.11. G8A A28G G33U U60A showed a self-cleavage of 0.17. G8A A28G U41A U49C A56U A65G showed a self-cleavage of 0.13. In the case of G8A A28G U51A, the self-cleavage is reported as 0.17. In the case of G8A A28G U58C, the self-cleavage is reported as 0.03. With G8A A28G U74C A75U U78A the self-cleavage was 0.05. For G8A A28U A35U U41C A56G U69C, the self-cleavage was 0.17. G8A A28U C29U showed a self-cleavage of 0.08. With G8A A28U U51A the self-cleavage was 0.07. G8A A28U U54A U72C showed a self-cleavage of 0.06. With G8A A35C U43A the self-cleavage was 0.12. In the case of G8A A35G A57U U78C, the self-cleavage is reported as 0.1. G8A A35G U41C U58C U60C U74A U80A showed a self-cleavage of 0.07. Variant G8A A35G U48C U69A has a self-cleavage of 0.07. In the case of G8A A35U A45C U69C, the self-cleavage is reported as 0.05. Work on G8A A35U U67A U74A yielded a self-cleavage of 0.22. For G8A A45G A56G U80A, the self-cleavage was 0.33. G8A A45G A64C U72C C79U gave a self-cleavage of 0.02. G8A A45G U54C A56G U78A showed a self-cleavage of 0.04. Variant G8A A45G U72C has a self-cleavage of 0.45. With G8A A45U A47G U69C the self-cleavage was 0. G8A A45U A56G U74C gave a self-cleavage of 0.05. G8A A47G A56G gave a self-cleavage of 0.25. G8A A47G U58C gave a self-cleavage of 0.27. In the case of G8A A47G U69A, the self-cleavage is reported as 0.2. Variant G8A A47G U76A has a self-cleavage of 0.41. With G8A A47U U49A G63A U72A the self-cleavage was 0.05. In the case of G8A A56G C81A, the self-cleavage is reported as 0.3. In the case of G8A A56G U67C, the self-cleavage is reported as 0.22. G8A A56G U72C showed a self-cleavage of 0.29. Variant G8A A56U G61A A64U U67C A77U has a self-cleavage of 0.04. Work on G8A A57G A64G U69C U78C yielded a self-cleavage of 0.04. G8A A57G U60A gave a self-cleavage of 0.04. With G8A A65G U67C the self-cleavage was 0.05. Variant G8A A75G C79A has a self-cleavage of 0.09. With G8A C11U A13C the self-cleavage was 0.09. With G8A C11U A13G U41C U49A A64U the self-cleavage was 0.1. For G8A C11U A21G G36A G61A, the self-cleavage was 0.04. With G8A C12A U41C the self-cleavage was 0.32. G8A C12U A75U U78C gave a self-cleavage of 0.08. G8A C12U U31A U72C gave a self-cleavage of 0.06. Variant G8A C14G U25C U78C has a self-cleavage of 0.06. With G8A C14G U26C A77U C81U the self-cleavage was 0.05. For G8A C14U A56G, the self-cleavage was 0.23. For G8A C14U G61A U78C, the self-cleavage was 0.05. G8A C14U U25A U26A G30A U54G gave a self-cleavage of 0.05. Work on G8A C17A C39G C79A yielded a self-cleavage of 0.43. In the case of G8A C17A U25C U41A A57G U72A, the self-cleavage is reported as 0.11. In the case of G8A C17U U25C A35G, the self-cleavage is reported as 0.06. In the case of G8A C17U U26A A56G U80A, the self-cleavage is reported as 0.04. For G8A C23A U49A U60C, the self-cleavage was 0.04. For G8A C23A U58A U60C, the self-cleavage was 0.06. G8A C23G A35U U54C U72G showed a self-cleavage of 0.04. Variant G8A C23G U49C U72A U74C has a self-cleavage of 0.13. With G8A C23U A45G A47G U60C G70C U80C the self-cleavage was 0.04. Work on G8A C23U A64G yielded a self-cleavage of 0.23. For G8A C23U U48C A56G C62A U66C A77U, the self-cleavage was 0.04. G8A C23U U74A showed a self-cleavage of 0.39. G8A C27A U58C showed a self-cleavage of 0.07. For G8A C27U U31C A35G U72A, the self-cleavage was 0.05. Variant G8A C29A C34A C40U C44A A56U U58G has a self-cleavage of 0.02. With G8A C29A U49A U67C U78C U80C the self-cleavage was 0.06. Variant G8A C34A U54C U60C has a self-cleavage of 0.15. G8A C34G A45U U51C U66C U80C gave a self-cleavage of 0.06. For G8A C34U G36A A45G A75U U78C, the self-cleavage was 0.04. Work on G8A C34U G61A yielded a self-cleavage of 0.06. G8A C38A C40U U66C U72C gave a self-cleavage of 0.27. With G8A C38A U58A the self-cleavage was 0.11. For G8A C38U U41A A77U U80A, the self-cleavage was 0.05. Work on G8A C39A A65U yielded a self-cleavage of 0.05. In the case of G8A C40A A56G A57G U69A, the self-cleavage is reported as 0.05. With G8A C44U A47G G63A the self-cleavage was 0.07. G8A C50A U51C showed a self-cleavage of 0.08. Variant G8A C50G U72A has a self-cleavage of 0.07. For G8A G9A A47G U58C U69A, the self-cleavage was 0.19. In the case of G8A G9A A56G, the self-cleavage is reported as 0.34. G8A G9C G22U G46C G70A showed a self-cleavage of 0.05. G8A G10A A45G showed a self-cleavage of 0.06. For G8A G10A A47G U51G A56G U72A, the self-cleavage was 0.03. In the case of G8A G10A U31G U60A U69C, the self-cleavage is reported as 0.05. Work on G8A G10A U41A A75U yielded a self-cleavage of 0.06. Work on G8A G10A U60A A65G yielded a self-cleavage of 0.06. G8A G10U G24U A28U A75U gave a self-cleavage of 0.47. For G8A G10U U69C, the self-cleavage was 0.15. In the case of G8A G16A A20G A57G U60C A65G U78C, the self-cleavage is reported as 0.07. With G8A G16A U31C C39A U54C the self-cleavage was 0.05. Variant G8A G16A U48C A56G has a self-cleavage of 0.27. G8A G16C G42A U74C gave a self-cleavage of 0.07. Variant G8A G19A A20G U25A U78C has a self-cleavage of 0.09. G8A G19A A56U U58C gave a self-cleavage of 0.1. With G8A G19A G24U U58G A65G C71U the self-cleavage was 0.11. G8A G22A U51C U58C U60C U72C U80C gave a self-cleavage of 0.12. Work on G8A G24A U25C A45U yielded a self-cleavage of 0.06. For G8A G24A U25C U51A U54C U74A, the self-cleavage was 0.04. For G8A G24A U60C, the self-cleavage was 0.09. Variant G8A G30C U31A G73A has a self-cleavage of 0.27. G8A G30C U31C U41C G55A U80C gave a self-cleavage of 0.06. With G8A G36A C40G U51C U76A the self-cleavage was 0.05. Variant G8A G55U A57G U72G has a self-cleavage of 0.07. Work on G8A G63A U72C yielded a self-cleavage of 0.09. Variant G8A G70A G73U has a self-cleavage of 0.21. G8A U25A G42A U74C showed a self-cleavage of 0.06. Work on G8A U25A U26A A57G yielded a self-cleavage of 0.04. G8A U25A U31C C62G A75G gave a self-cleavage of 0.1. G8A U25C A35G G52A gave a self-cleavage of 0.07. For G8A U25C A56U U72C U74C, the self-cleavage was 0.07. Variant G8A U25C C32U U76C has a self-cleavage of 0.25. For G8A U25C C62U, the self-cleavage was 0.36. With G8A U25C U26C U41C U66C U80G the self-cleavage was 0.1. G8A U25C U26C U80A showed a self-cleavage of 0.08. G8A U25C U31C A45G gave a self-cleavage of 0.05. Variant G8A U25C U31C U67A has a self-cleavage of 0.25. With G8A U25C U31G U49A A56G A65U A75G the self-cleavage was 0. Work on G8A U25C U41C U43C C62A yielded a self-cleavage of 0.06. For G8A U25C U43C U48A U49C, the self-cleavage was 0.29. In the case of G8A U25C U43C U69A, the self-cleavage is reported as 0.05. With G8A U25C U60A A75G the self-cleavage was 0.14. G8A U25C U80C showed a self-cleavage of 0.29. For G8A U26A A35U, the self-cleavage was 0.15. Variant G8A U26A C40U U69C has a self-cleavage of 0.04. For G8A U26A U43G U51C A57G C62U U78C, the self-cleavage was 0.03. Variant G8A U26C U31A G33U U43C has a self-cleavage of 0.05. G8A U26C U58C U67C U69A U80C gave a self-cleavage of 0.04. G8A U26C U66A showed a self-cleavage of 0.06. In the case of G8A U26C U67C U76C, the self-cleavage is reported as 0.05. With G8A U31A C32A C37G U72C the self-cleavage was 0.05. Work on G8A U31A G36A yielded a self-cleavage of 0.06. With G8A U31A U49A A56G U60A C68U the self-cleavage was 0.05. With G8A U31C A35U U67G the self-cleavage was 0.1. With G8A U31C A64U U67G U80C the self-cleavage was 0.05. With G8A U31C C62U A65G U74C the self-cleavage was 0.04. Work on G8A U31C G61U A65G U67C U74C U76G yielded a self-cleavage of 0.02. Work on G8A U31C U43A U78A yielded a self-cleavage of 0.17. With G8A U31C U48C the self-cleavage was 0.22. For G8A U31C U49C U54A U60C U72C U74C, the self-cleavage was 0.05. Work on G8A U31C U74C U78A yielded a self-cleavage of 0.39. G8A U31G A47U gave a self-cleavage of 0.2. For G8A U41A A77U, the self-cleavage was 0.06. G8A U41A C62A G63A U74C gave a self-cleavage of 0.19. G8A U41C A45U G63C gave a self-cleavage of 0.06. Work on G8A U41C A57G C79U yielded a self-cleavage of 0.34. Variant G8A U41C A57G U67C has a self-cleavage of 0.12. For G8A U41C C59A U78C, the self-cleavage was 0.12. For G8A U41C C81U, the self-cleavage was 0.54. G8A U41C U54A U69C showed a self-cleavage of 0.1. Variant G8A U41C U54A U76A has a self-cleavage of 0.4. Work on G8A U41C U66C yielded a self-cleavage of 0.18. In the case of G8A U41C U80C, the self-cleavage is reported as 0.12. For G8A U43A U78C, the self-cleavage was 0.31. With G8A U43C C50A U69C the self-cleavage was 0.06. In the case of G8A U43C U48C, the self-cleavage is reported as 0.3. In the case of G8A U43C U74C U80C, the self-cleavage is reported as 0.46. With G8A U49C C59A U74C the self-cleavage was 0.05. Variant G8A U49C U54C A65G U67C U74C has a self-cleavage of 0.12. Variant G8A U49C U60A has a self-cleavage of 0.15.
